Assay [1] deals with RhoA (endogenous in HEK293 cells) (human (endogenous in HEK293)) (UniProt P61586). The experiment in a line: co-IP; lysates of HEK293 cells stably expressing vector or GFP-tagged calsenilin (FL, NTF or CTF); immunoprecipitated with an anti-RhoA antibody, Western blot with anti-calsenilin (1F11; 4E4), anti-p190RhoGAP and anti-RhoA; modified RIPA buffer, 150 mM NaCl, 1% NP-40, 4 °C. A general note: Immunoblotting shows a protein as a band on a membrane.

Sequences of proteins named here, by UniProt entry; tags and fusion partners are left off.
UniProt P61586: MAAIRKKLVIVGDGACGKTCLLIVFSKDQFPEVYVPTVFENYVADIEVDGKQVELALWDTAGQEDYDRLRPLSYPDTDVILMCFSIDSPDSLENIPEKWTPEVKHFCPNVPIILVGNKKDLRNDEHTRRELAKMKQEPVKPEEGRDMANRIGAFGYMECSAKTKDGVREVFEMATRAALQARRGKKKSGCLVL
UniProt P61589: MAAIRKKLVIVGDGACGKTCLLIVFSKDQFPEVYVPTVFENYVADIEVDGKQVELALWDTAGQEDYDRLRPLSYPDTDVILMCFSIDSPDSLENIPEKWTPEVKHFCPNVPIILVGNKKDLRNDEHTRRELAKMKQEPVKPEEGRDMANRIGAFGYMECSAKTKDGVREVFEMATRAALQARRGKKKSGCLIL
UniProt Q9QUI0: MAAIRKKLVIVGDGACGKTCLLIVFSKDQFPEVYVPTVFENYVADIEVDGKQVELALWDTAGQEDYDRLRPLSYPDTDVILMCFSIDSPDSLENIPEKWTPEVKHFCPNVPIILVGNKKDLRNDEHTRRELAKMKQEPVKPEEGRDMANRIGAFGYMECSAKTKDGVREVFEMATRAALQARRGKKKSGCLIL

For assay [2], the target named is RhoA (endogenous in PC12 cells) (rat (endogenous in PC12)) (UniProt P61589). The experiment in a line: co-IP; lysates of PC12 cells stably expressing vector or GFP-tagged calsenilin (FL, NTF or CTF); immunoprecipitated with an anti-RhoA antibody, Western blot with anti-calsenilin, anti-p190RhoGAP and anti-RhoA; modified RIPA buffer, 50 mM Tris-HCl pH 7.4, 150 mM NaCl, 1% NP-40, 0.25% sodium deoxycholate, 1 mM EDTA, 4 °C.

Assay [3] concerns the target RhoA (endogenous in mouse brain) (mouse (endogenous in brain)) (UniProt Q9QUI0). Put plainly: co-IP; whole brain lysates of wild-type and calsenilin-knockout mice; co-immunoprecipitation of RhoA with calsenilin (anti-4E4) and p190RhoGAP; modified RIPA buffer, 150 mM NaCl, 1% NP-40, 4 °C.
For assay [4], the target named is RhoA (endogenous in PC12 cells) (rat (endogenous in PC12)) (UniProt P61589). Put plainly: co-IP; lysates of PC12 cells expressing calsenilin preloaded with 0.1 mM GTPγS (compared with 1 mM GDP) after 10 mM EDTA, 15 min at 30 °C, stopped with 60 mM MgCl2; immunoprecipitated with an anti-RhoA antibody, Western blot with anti-calsenilin and anti-RhoA.

Numbering of substitutions follows the chain as printed. No constants are given. Whether binding was seen depends on the method and setting. Binding seen in cells or lysates may run through a third protein. Some entries that bind do so weakly or less than the wild type. For some assays here: Sequences can lack the tags named with a protein.

B1: GFP-tagged human calsenilin-NTF (pEGFP-N1-calsenilin-NTF, residues 1-64) (domain or fragment, UniProt Q9Y2W7 1-64)
chain: MQPAKEVTKASDGSLLGDLGHTPLSKKEGIKWQRPRLSRQALMRCCLVKWILSSTAPQGSDSSD
Turning to B1, the binding entry in assay [1] and in assay [2] was “no binding” throughout.

B2: GFP-tagged human calsenilin-CTF (pEGFP-N1-calsenilin-CTF, residues 65-256) (domain or fragment, UniProt Q9Y2W7 65-256)
chain: SELELSTVRHQPEGLDQLQAQTKFTKKELQSLYRGFKNECPTGLVDEDTFKLIYAQFFPQGDATTYAHFLFNAFDADGNGAIHFEDFVVGLSILLRGTVHEKLKWAFNLYDINKDGYITKEEMLAIMKSIYDMMGRHTYPILREDAPAEHVERFFEKMDRNQDGVVTIEEFLEACQKDENIMSSMQLFENVI
For the molecule B2, the binding result in assay [1] and in assay [2] was “binds” throughout.

B3: calsenilin (endogenous in mouse brain) (protein, UniProt Q9QXT8 1-256)
chain: MQRTKEAVKASDGNLLGDPGRIPLSKRESIKWQRPRFTRQALMRCCLIKWILSSAAPQGSDSSDSELELSTVRHQPEGLDQLQAQTKFTKKELQSLYRGFKNECPTGLVDEDTFKLIYSQFFPQGDATTYAHFLFNAFDADGNGAIHFEDFVVGLSILLRGTVHEKLKWAFNLYDINKDGCITKEEMLAIMKSIYDMMGRHTYPILREDAPLEHVERFFQKMDRNQDGVVTIDEFLETCQKDENIMNSMQLFENVI
For the molecule B3, the binding result in assay [3] is “binds”.

B4: p190 Rho GTPase-activating protein (endogenous in mouse brain) (protein, UniProt Q91YM2 1-1499)
chain: MMMARKQDVRIPTYNISVVGLSGTEKEKGQCGIGKSCLCNRFVRPSADEFHLDHTSVLSTSDFGGRVVNNDHFLYWGEVSRSLEDCVECKMHIVEQTEFIDDQTFQPHRSTALQPYIKRAAATKLASAEKLMYFCTDQLGLEQDFEQKQMPDGKLLVDGFLLGIDVSRGMNRNFDDQLKFVSNLYNQLAKTKKPIVVVLTKCDEGVERYIRDAHTFALSKKNLQVVETSARSNVNVDLAFSTLVQLIDKSRGKTKIIPYFEALKQQSQQIATAKDKYEWLVSRIVKNHNENWPSVSRKMQASPEYQDYVYLEGTQKAKKLFLQHIHRLKHEHIERRRKLYLAALPLAFEALIPNLDEVDHLSCIKAKKLLETKPEFLKWFVVLEETPWDATSHIDNMENERIPFDLMDTVPAEQLYETHLEKLRNERKRAEMRRAFKENLETSPFITPGKPWEEARSFIMNEDFYQWLEESVYMDIYGKHQKQIIDRAKEEFQELLLEYSELFYELELDAKPSKEKMGVIQDVLGEEQRFKALQKLQAERDALILKHIHFVYHPTKETCPSCPACVDAKIEHLISSRFIRPSDRNQKNSLSDLNIDRINLVILGKDGLARELANEIRALCTNDDKYVIDGKMYELSLRPIEGNVRLPVNSFQTPTFQPHGCLCLYNSKESLSYVVESIEKSRESTLGRRDNHLVHLPLTLILVNKRGDTSGETLHSLIQQGQQIASKLQCVFLDPASAGIGYGRNINEKQISQVLKGLLDSKRNLNLVSSTASIKDLADVDLRIVMCLMCGDPFSADDVLSPVLQSQTCKSSHCGSSNSVLLELPIGLHKKRIELSVLSYHSSFSIRKSRLVHGYIVFYSAKRKASLAMLRAFLCEVQDIIPIQLVALTDGAIDVLDNDLSREQLTEGEEIAQEIDGRFTSIPCSQPQHKLELFHPFFKDVVEKKNIIEATHMYDNVAEACSTTEEVFNSPRAGSPLCNSNLQDSEEDVEPPSYHLFREDATLPSLSKDHSKFSMELEGNDGLSFIMSNFESKLNNKVPPPVKPKPPVHFDITKDLSYLDQGHREGQRKSMSSSPWMPQDGFDPSDYAEPMDAVVKPRNEEENIYSVPHDSTQGKIITIRNINKAQSNGSGNGSDSEMDTSSLERGRKVSAVSKPVLYRTRCTRLGRFASYRTSFSVGSDDELGPIRKKEEDQASQGYKGDNAVIPYETDEDPRRRNILRSLRRNTKKPKPKPRPSITKATWESNYFGVPLTTVVTPEKPIPIFIERCIEYIEATGLSTEGIYRVSGNKSEMESLQRQFDQDHNLDLAEKDFTVNTVAGAMKSFFSELPDPLVPYSMQIDLVEAHKINDREQKLHALKEVLKKFPKENHEVFKYVISHLNKVSHNNKVNLMTSENLSICFWPTLMRPDFSSMDALTATRSYQTIIELFIQQCPFFFYNRPISEPPGAAPGSPSAMAPTVPFLTSTPATSQPSPPQSPPPTPQSPMQPLLSSQLQAEHTL
Take B4: the binding result in assay [3] was “binds”.

B5: p190 Rho GTPase-activating protein (endogenous in PC12 cells) (protein, UniProt P81128 1-1499)
chain: B4 chain with V197I, N287S, P293L, A390E, L593P, V799I, L828V, D1051E, K1381R
Consider B5, for which the binding entry in assay [2] is on record as “binds”.

B6: GFP-tagged full-length human calsenilin (pEGFP-N1-calsenilin-FL, residues 1-256) (protein, UniProt Q9Y2W7 1-256)
chain: MQPAKEVTKASDGSLLGDLGHTPLSKKEGIKWQRPRLSRQALMRCCLVKWILSSTAPQGSDSSDSELELSTVRHQPEGLDQLQAQTKFTKKELQSLYRGFKNECPTGLVDEDTFKLIYAQFFPQGDATTYAHFLFNAFDADGNGAIHFEDFVVGLSILLRGTVHEKLKWAFNLYDINKDGYITKEEMLAIMKSIYDMMGRHTYPILREDAPAEHVERFFEKMDRNQDGVVTIEEFLEACQKDENIMSSMQLFENVI
Take B6: the binding result in assay [1], in assay [2] and in assay [4] was “binds” in each case.

B7: p190 Rho GTPase-activating protein (endogenous in HEK293 cells) (protein, UniProt Q9NRY4 1-1499)
chain: MMMARKQDVRIPTYNISVVGLSGTEKEKGQCGIGKSCLCNRFVRPSADEFHLDHTSVLSTSDFGGRVVNNDHFLYWGEVSRSLEDCVECKMHIVEQTEFIDDQTFQPHRSTALQPYIKRAAATKLASAEKLMYFCTDQLGLEQDFEQKQMPDGKLLVDGFLLGIDVSRGMNRNFDDQLKFVSNLYNQLAKTKKPIVVVLTKCDEGVERYIRDAHTFALSKKNLQVVETSARSNVNVDLAFSTLVQLIDKSRGKTKIIPYFEALKQQSQQIATAKDKYEWLVSRIVKNHNENWLSVSRKMQASPEYQDYVYLEGTQKAKKLFLQHIHRLKHEHIERRRKLYLAALPLAFEALIPNLDEIDHLSCIKAKKLLETKPEFLKWFVVLEETPWDATSHIDNMENERIPFDLMDTVPAEQLYEAHLEKLRNERKRVEMRRAFKENLETSPFITPGKPWEEARSFIMNEDFYQWLEESVYMDIYGKHQKQIIDKAKEEFQELLLEYSELFYELELDAKPSKEKMGVIQDVLGEEQRFKALQKLQAERDALILKHIHFVYHPTKETCPSCPACVDAKIEHLISSRFIRPSDRNQKNSLSDPNIDRINLVILGKDGLARELANEIRALCTNDDKYVIDGKMYELSLRPIEGNVRLPVNSFQTPTFQPHGCLCLYNSKESLSYVVESIEKSRESTLGRRDNHLVHLPLTLILVNKRGDTSGETLHSLIQQGQQIASKLQCVFLDPASAGIGYGRNINEKQISQVLKGLLDSKRNLNLVSSTASIKDLADVDLRIVMCLMCGDPFSADDILFPVLQSQTCKSSHCGSNNSVLLELPIGLHKKRIELSVLSYHSSFSIRKSRLVHGYIVFYSAKRKASLAMLRAFLCEVQDIIPIQLVALTDGAVDVLDNDLSREQLTEGEEIAQEIDGRFTSIPCSQPQHKLEIFHPFFKDVVEKKNIIEATHMYDNAAEACSTTEEVFNSPRAGSPLCNSNLQDSEEDIEPSYSLFREDTSLPSLSKDHSKLSMELEGNDGLSFIMSNFESKLNNKVPPPVKPKPPVHFEITKGDLSYLDQGHRDGQRKSVSSSPWLPQDGFDPSDYAEPMDAVVKPRNEEENIYSVPHDSTQGKIITIRNINKAQSNGSGNGSDSEMDTSSLERGRKVSIVSKPVLYRTRCTRLGRFASYRTSFSVGSDDELGPIRKKEEDQASQGYKGDNAVIPYETDEDPRRRNILRSLRRNTKKPKPKPRPSITKATWESNYFGVPLTTVVTPEKPIPIFIERCIEYIEATGLSTEGIYRVSGNKSEMESLQRQFDQDHNLDLAEKDFTVNTVAGAMKSFFSELPDPLVPYNMQIDLVEAHKINDREQKLHALKEVLKKFPKENHEVFKYVISHLNKVSHNNKVNLMTSENLSICFWPTLMRPDFSTMDALTATRTYQTIIELFIQQCPFFFYNRPITEPPGARPSSPSAVASTVPFLTSTPVTSQPSPPQSPPPTPQSPMQPLLPSQLQAEHTL
Take B7: the binding entry in assay [1] is “binds”.

The record behind these values is publication PMC5979497.
